The target of experiment [1] is T1, soluble ADAM17 (extracellular domain of ADAM-17) (human, UniProt P78536 215-671).
T1 construct: also called TACE
Kind of experiment: SPR (Biacore) single cycle kinetics, antibody captured by anti-human IgG Fc at 452.0 RU, ADAM17 12.5-200 nM. As to the method: (§1) Each antibody (used as the ligand) was bound at two different level on the second flowcell of a Biacore CM5 sensor chip (GE Healthcare) activated on both flowcells with a mouse anti-human IgG Fc specific covalently linked to the carboxymethyldextran matrix. For each antibody and each level of capture, five concentrations of soluble ADAM17 (the analyte with a molecular weight of 52 kDa) at concentrations ranging either from 12.5 to 200 nM or from 6.25 to 100 nM obtained by a two fold dilution scheme were injected in the growing range of concentrations at a flow rate of 30 μl/min. Each concentration was injected during 90 s. At the end of the 5th injection, the running buffer was injected during 600 s for the dissociation phase measurement. At the end of each cycle, the surface was regenerated by an injection of 10 mM Glycine, HCl pH 1.7 buffer during 30 s. The sensorgramms obtained were double referenced by first subtracting the signal from the reference FC1 surface (without any anti-ADAM17 antibodies) followed by subtraction of the sensorgramm obtained for each antibody and each level of capture by 5 injections of the running buffer (Biacore HBS-EP buffer). Data were processed using BIAevaluation 3.1 software using the 1:1 Langmuir model.

For experiment [2], the target named is T1, soluble ADAM17 (extracellular domain of …). In words: SPR (Biacore) single cycle kinetics, antibody captured by anti-human IgG Fc at 1152.6 RU, ADAM17 6.25-100 nM. Here is the method:
as §1

The target is the same in experiment [3]. Kind of experiment: SPR (Biacore) single cycle kinetics, antibody captured by anti-human IgG Fc at 1152.6 RU, ADAM17 12.5-200 nM. As to the method: as §1
The target is the same in experiment [4]. Kind of experiment: SPR (Biacore) single cycle kinetics, antibody captured by anti-human IgG Fc at 452.0 RU, ADAM17 6.25-100 nM. As to the method:
as §1

For experiment [5] the target is unchanged. Kind of experiment: SPR (Biacore) single cycle kinetics, antibody captured by anti-human IgG Fc at 1171.0 RU, ADAM17 12.5-200 nM. Here is the method:
as §1

Experiment [6] shares this target. In words: SPR (Biacore) single cycle kinetics, antibody captured by anti-human IgG Fc at 480.5 RU, ADAM17 12.5-200 nM. Here is the method:
as §1
(In general: Surface plasmon resonance follows binding to a sensor surface in real time, without labels.)

The target is the same in experiment [7]. In words: SPR (Biacore) single cycle kinetics, antibody captured by anti-human IgG Fc at 480.5 RU, ADAM17 6.25-100 nM. As to the method: as §1
The target is the same in experiment [8]. In words: SPR (Biacore) single cycle kinetics, mean ± SE of the four runs. Here is the method: as §1
Experiment [9] shares this target. In words: SPR (Biacore) single cycle kinetics, antibody captured by anti-human IgG Fc at 1171.0 RU, ADAM17 6.25-100 nM. Here is the method:
as §1

T1 sequence (P78536 215-671): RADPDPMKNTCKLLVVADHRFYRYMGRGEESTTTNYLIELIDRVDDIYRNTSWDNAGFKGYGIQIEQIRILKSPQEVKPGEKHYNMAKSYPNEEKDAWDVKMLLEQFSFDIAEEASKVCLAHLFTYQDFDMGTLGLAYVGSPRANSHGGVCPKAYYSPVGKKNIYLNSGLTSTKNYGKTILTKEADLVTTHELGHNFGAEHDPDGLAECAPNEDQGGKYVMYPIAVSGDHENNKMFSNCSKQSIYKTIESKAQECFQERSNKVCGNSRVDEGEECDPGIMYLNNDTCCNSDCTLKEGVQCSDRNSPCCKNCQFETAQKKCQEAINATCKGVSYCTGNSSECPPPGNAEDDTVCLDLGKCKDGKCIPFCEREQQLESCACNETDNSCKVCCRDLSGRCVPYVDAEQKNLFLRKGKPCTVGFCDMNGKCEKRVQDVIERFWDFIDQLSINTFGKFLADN

B1: Hz1022C3 IgG1 (antibody)
heavy: QVQLQESGPGLVKPSETLSLTCTVSGFSLDTSGMGVSWIRQPAGKGLEWIGHIYWDDDKRYNPSLKSRVTMSKDTSSNQVSLKLSSVTAADTAVYYCARRSHFGNYYYAMDYWGQGTTVTVSSASTKGPSVFPLAPSSKSTSGGTAALGCLVKDYFPEPVTVSWNSGALTSGVHTFPAVLQSSGLYSLSSVVTVPSSSLGTQTYICNVNHKPSNTKVDKRV[not shown - human IgG1 Fc]
light: DIQMTQSPSSLSASVGDRVTITCRASQDISSYLNWYQQKPGKAPKLLIFYTSRLQSGVPSRFSGSGSGTDFTLTISSLQPEDFATYYCQQGKTLPLTFGGGTKVEIKRTVAAPSVFIFPPSDEQLKSGTASVVCLLNNFYPREAKVQWKVDNALQSGNSQESVTEQDSKDSTYSLSSTLTLSKADYEKHKVYACEVTHQGLSSPVTKSFNRGEC
notes: also called humanized 1022C3 IgG1
Regarding B1, the Kd in experiment [1] came out at 1 nM; in experiment [2], 1.36 nM; in [3], 1.61 nM; in experiment [4], 0.83 nM. Also, the dissociation rate constant (koff) in experiment [1] turned out to be 0.000227 s⁻¹; in experiment [2], 0.000242 s⁻¹; in experiment [3], 0.000246 s⁻¹; in [4] it was 0.000224 s⁻¹. For the same molecule, the kon was determined as 227000 M⁻¹ s⁻¹ in [1], 178000 M⁻¹ s⁻¹ in experiment [2], 153000 M⁻¹ s⁻¹ in experiment [3] and 268000 M⁻¹ s⁻¹ in experiment [4].

B2: Hz1022C3 IgG4 (antibody)
heavy: QVQLQESGPGLVKPSETLSLTCTVSGFSLDTSGMGVSWIRQPAGKGLEWIGHIYWDDDKRYNPSLKSRVTMSKDTSSNQVSLKLSSVTAADTAVYYCARRSHFGNYYYAMDYWGQGTTVTVSSASTKGPSVFPLAPCSRSTSESTAALGCLVKDYFPEPVTVSWNSGALTSGVHTFPAVLQSSGLYSLSSVVTVPSSSLGTKTYTCNVDHKPSNTKVDKRV[not shown - human IgG4 Fc with S228P (EU numbers)]
light: DIQMTQSPSSLSASVGDRVTITCRASQDISSYLNWYQQKPGKAPKLLIFYTSRLQSGVPSRFSGSGSGTDFTLTISSLQPEDFATYYCQQGKTLPLTFGGGTKVEIKRTVAAPSVFIFPPSDEQLKSGTASVVCLLNNFYPREAKVQWKVDNALQSGNSQESVTEQDSKDSTYSLSSTLTLSKADYEKHKVYACEVTHQGLSSPVTKSFNRGEC
notes: also called humanized 1022C3 IgG4
As for B2, the Kd worked out at 1.38 nM in [5]; 0.91 nM in experiment [6]; 0.76 nM in [7]; 1.05 nM in [8]; 1.16 nM in experiment [9]. For the same molecule, the koff in [5] amounted to 0.000182 s⁻¹; in experiment [6], 0.000176 s⁻¹; in experiment [7] it was 0.000177 s⁻¹; in [9] it was 0.000182 s⁻¹. The on-rate (kon) is 132000 M⁻¹ s⁻¹ in [5], 194000 M⁻¹ s⁻¹ in experiment [6], 233000 M⁻¹ s⁻¹ in experiment [7] and 156000 M⁻¹ s⁻¹ in experiment [9].

By Kd is commonly meant the constant that tells how readily two partners part at equilibrium. One may read the koff as the first-order rate constant of dissociation. High values mean fast dissociation, low ones slow dissociation. By kon is commonly meant the second-order rate constant of association.
